Where “and” joins values, the source holds several entries; their conditions need not be identical. Identical values can stand only once. In all, about 5,300 compounds were measured (“PER2::LUC luminescence relative to vehicle control”: median about 0.96, highest 2% from about 1.3 on). This is one part of the list.
Test system: mPer2Luc MEF
Assay: PER2::LUC luminescence relative to vehicle control (fold of vehicle); higher = higher PER2::LUC reporter signal
Conditions: 10 µM
Procedure, shortened: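 In 384-well plates, ~3000 mPer2Luc reporter mouse embryonic fibroblasts per well were cultured in DMEM with 10% FBS at 37 °C and 5% CO2 for 48 h before compounds from commercial libraries were added at 10 μM. ONE-Glo luciferase readings were taken 24 h and 30 h after treatment. Each value is PER2::LUC luminescence given as fold of vehicle control.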

SMILES | PER2::LUC luminescence (time after treatment 24 h) | PER2::LUC luminescence (time after treatment 30 h)
Nc1ccc(S(=O)(=O)Nc2ccccn2)cc1 | 0.888 | 0.767
N[C@@H](Cc1ccc(O)c(I)c1)C(=O)O | 0.947 | 0.907
O=C(O)[C@H](O)[C@@](O)(Cc1ccc(O)cc1)C(=O)O | 0.947 | 0.901
COc1ccnc(C[S+]([O-])c2nc3cc(OC(F)F)ccc3[nH]2)c1OC (configuration not stated) | 0.944 and 1.32 | 1.01 and 0.991
Cc1[nH]c2ccccc2c1CCNCc1ccc(/C=C/C(=O)NO)cc1 | 0.381 | 0.253
O=C(NCCO)c1ccc2c(c1)nc(Nc1cccc(Cl)c1)c1ccncc12 | 1.03 | 0.995
O=c1[nH]c(=O)c2ccccc2o1 | 0.411 | 0.755
Nc1ccn([C@@H]2O[C@H](CO)[C@@H](O)[C@@H]2O)c(=O)n1 | 0.909 and 0.992 and 0.831 | 0.965 and 0.831 and 0.963
Nc1ncnc2c1ncn2C1CCCO1 (configuration not stated) | 1.15 | 1.25
O=c1ccc2ccccc2o1 | 0.901 | 0.778
CC1(C)C=Cc2cc3ccc(=O)oc3cc2O1 | 1.26 | 1.48
NCCOB(c1ccccc1)c1ccccc1 | 0.966 | 0.931
CCOc1ccc(C[C@H]2NC(=O)CCSSC[C@@H](C(=O)N3CCC[C@H]3C(=O)N[C@@H](CCCN)C(=O)NCC(N)=O)NC(=O)[C@H](CC(N)=O)NC(=O)[C@H]([C@@H](C)O)NC(=O)[C@H]([C@@H](C)CC)NC2=O)cc1 | 0.966 | 0.883
CC(C)C[C@H](NC(=O)[C@H](CCC(N)=O)NC(=O)[C@H](CCCCN)NC(=O)[C@H](CCC(N)=O)NC(=O)[C@@H](N)CCC(=O)O)C(=O)N[C@@H](CCC(N)=O)C(=O)O | 1.03 | 0.938
Cc1nc(-c2cccnc2)sc1C(=O)Nc1ccccc1-c1cn2c(CN3CCOCC3)csc2n1 | 1.07 | 0.911
CN(C)CCCN1c2ccccc2Sc2ccc(Cl)cc21 | 0.802 and 0.69 | 0.848 and 0.664
CCOC(=O)c1c(C)cc(O)cc1O | 1.01 | 1.04
CCCC1(C)C(C#N)(C#N)C1(C#N)C#N | 1.15 | 1.04
COc1ccccc1N1CCN(CCCCN2C(=O)CCC2=O)CC1 | 0.982 | 0.886
CC(C)Cn1c(=O)n(C)c(=O)c2[nH]cnc21 | 1 and 0.886 | 0.925 and 0.848
CCCCOc1cc(CC2CNC(=O)N2)ccc1OC (configuration not stated) | 0.947 and 0.699 | 0.899 and 0.995
OC[C@H]1O[C@@H](n2cnc3c(N[C@H]4CCC[C@@H]4O)ncnc32)[C@@H](O)C1O (some centres not stated) | 1.25 | 0.88
O=C1NC(=O)/C(=C/c2ccc3c(c2)OC(F)(F)O3)S1 | 1.31 and 1.12 | 1.42 and 1.06
CC1(C)C2CCC1(C(=O)O)C(=O)C2 (configuration not stated) | 0.998 | 0.954
CCOc1ccccc1OC(c1ccccc1)C1CNCCO1 (configuration not stated) | 0.967 | 0.954
N[C@@H](CCS(=O)O)C(=O)O | 0.964 | 0.944
